Some of the results follow. Further columns of the screen follow, without active or inactive calls. Most of these compounds were active or inconclusive in the main read-out, so they are no random draw. Potencies come from curve fits of mixed quality, noted in brackets.
Assay: qHTS Assay for Lipid Storage Modulators (AID 1519)
Conditions: Drosophila S3 cells, BODIPY lipid droplet/cell ratio, laser cytometry, cells loaded with oleic acid
In short: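 Cells seeded at 5,000 per well were treated with compounds over a concentration series and loaded with oleic acid (400 uM, as added). Lipid droplet fluorescence (488 nm excitation, 500-530 nm channel) was read by laser-scanning cytometry and normalized to 20 uM Triacsin C.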

[1] = measured here: cell count channel max response
[2] = measured here: cell number channel AC50
[3] = measured here: lipid (BODIPY) channel AC50
[4] = measured here: lipid channel max response
Tags describe the fitted curve by direction and shape.

Row | Compound | max response [1] | AC50 [2] | AC50 [3] | max response [4]
1 | O=c1c(O)c(-c2ccc(O)cc2)oc2cc(O)ccc12 | -43% | 39.8 µM [falling, single point] | 39.8 µM [falling, single point] | -55.7%
2 | COC(=O)C1=C(C)NC(C)=C([N+](=O)[O-])[C@H]1c1ccccc1C(F)(F)F | 74.4% | 7.08 µM [rising, full curve] | 7.08 µM [rising, full curve] | 86.2%
3 | O=C(c1cnccn1)N1CCC[C@@]2(CCN(Cc3ccncc3)C2)C1 | 16.7% | 2.82 µM [rising, partial curve] | 1.58 µM [rising, full curve, poor fit] | 29.8%
4 | COCCn1c(=O)c(C)nc2cnc(N3CCOCC3)nc21 | 32.3% | 8.91 µM [rising, partial curve] | 8.91 µM [rising, partial curve] | 39%
5 | CC#CCOC(=O)c1c(C)nc2sc3c(c2c1N)CC[C@@H](O)C3 | 109% | 1 µM [rising, full curve] | 0.891 µM [rising, full curve] | 139%
6 | O=c1cnc2cnc(N3CCOCC3)nc2n1Cc1cccs1 | 31% | 1.58 µM [rising, full curve, poor fit] | 1.58 µM [rising, full curve, poor fit] | 38.4%
7 | c1ccc(CNc2nc(-c3ccoc3)nc3ccccc23)cc1 | 6.11% | 0.2 µM [rising, full curve, poor fit] | 0.2 µM [rising, full curve] | 5.88%
8 | Clc1ccccc1-c1nc(NCCN2CCOCC2)c2ccccc2n1 | 44.5% | 14.1 µM [rising, partial curve, poor fit] | 12.6 µM [rising, partial curve, poor fit] | 48.8%

Source: PubChem BioAssay (NCATS)
